The supplement of paper PMC10126150
Values marked as one replicate rest on one cluster of the flow cell; about a third of the high ones do not repeat.

System: ATP
Experiment: switch fluorescence ratio, 500 uM ATP over buffer (Cy3 cluster intensity, sum of 5 cycles each) (fold (ratio)); higher = stronger signal-on switching upon ATP binding; sequences stand for … in TCGTCGGCAGCGTCAGATGTGTATAAGAGACAGTTTTTTTTTTTTTTTTTTTTTTTTT…TC
Details: aptamer strand: ATP DNA aptamer (quencher-CACCTGGGGGAGTATTGCGGAGGAAGG + anchor), 100 nM annealed; ATP concentration: 500 uM; one replicate
In short: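 Cy3-labelled switching-strand clusters on a modified Illumina MiSeq flow-cell were annealed to 100 nM quencher-labelled ATP aptamer, imaged in selection buffer, then imaged after 15 min with 500 uM ATP at 22 °C. Five buffer/ATP cycles ran, with NaOH stripping and re-annealing between them. The fluorescence ratio is summed target-cycle over summed buffer-cycle Cy3 intensity per cluster, averaged per switch-domain sequence. Clusters outside 100-1000 RFU were excluded.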
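Note: ATP exposure 15 min at 22 °C before imaging.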

Row | Sequence | switch fluorescence ratio
1 | GGTATACTCT | 1.02
2 | AGTGGATCGC | 1.01
3 | GGTGCACGA | 0.996
4 | TAAAGATTTA | 1.03
5 | ATTTTCCCGC | 1.11
6 | AGCGGGATCG | 1.03
7 | TCTGATAAAA | 1.04
8 | TATTATGAAC | 0.979
9 | TATTAGTATC | 0.98
10 | ACTTATATGG | 1.09
11 | CTGGTACGGT | 1.03
12 | GTATAGTGGA | 1.02
13 | TTGTGGCCC | 1.02
14 | CGTCCTATGT | 1
15 | TGCGAGCGAT | 1.08
16 | CCGTAGGTGT | 0.978
17 | CAAATGTTGA | 1.02
18 | ACGTATGTAG | 0.987
19 | TTCTGCCCAG | 1.33
20 | AGCATGATGT | 1.03
21 | AAACATCGAT | 0.986
22 | GTAGCTAGGT | 0.991
23 | ACCGTGTGAT | 1.04

Row | Sequence | switch fluorescence ratio
24 | CGCGATTTCG | 1.05
25 | CATGATCTTC | 0.975
26 | GTGAGAACGT | 1.02
27 | GCTGTATGTG | 0.976
28 | GTAATGAGCT | 0.986
29 | GTGACTGGTG | 1.01
30 | TGCGACGGAT | 1.13
31 | TCTCGACTTT | 1.01
32 | ATGGTTCCGC | 1.11
33 | GCGTTGAGCG | 0.978
34 | GCCAAGGTTG | 1.01
35 | ATAGTCTCGC | 0.991
36 | GCGTTAGCT | 1.01
37 | GCTCTACTG | 0.993
38 | AGTGCAATCC | 2.2
39 | GCTAGAAGA | 1.04
40 | CCCCTTCTCG | 1.28
41 | AAACGCTGAG | 1.04
42 | AAAGGATATA | 1
43 | AGGGCATTTA | 1
44 | GGATACCC | 0.988
45 | AGAAACTAGT | 1.02
46 | AATTAACGTT | 1.03

Row | Sequence | switch fluorescence ratio
47 | ACTTAGGGCG | 1.04
48 | GCCGCGTGCA | 1.05
49 | GTTTCGACTT | 0.991
50 | TCGCTCGCGT | 1.06
51 | AACTAATTCG | 0.997
52 | ATTCTCTTG | 0.99
53 | TTAATGATA | 0.954
54 | GGATGCTTTG | 1.01
55 | TCGTGGAAAG | 0.939
56 | CTCATCTAGC | 1
57 | ACTGTGTTCG | 0.948
58 | GAGTGAGATA | 1
59 | TTAACGGAA | 1.05
60 | CTTGGACGCT | 1.03
61 | CCCTGGCGTG | 1.2
62 | ATTATCAGC | 1.03
63 | GCAAGTGAGA | 1.03
64 | AACGGGAGGA | 1.03
65 | GATGCTAGGA | 1.03
66 | TAAACAGGAT | 1
67 | TTGCGTAGG | 1.06
68 | GCATTGCAGG | 1.01
69 | CCGGGGACGG | 1.03

Row | Sequence | switch fluorescence ratio
70 | AAGTAATAGA | 0.996
71 | GTAATTCCGA | 1
72 | CCATGATTAA | 0.986
73 | GGGATCGCGT | 1.02
74 | AGGGACTTAT | 1.06
75 | GCGTAAGGCT | 1.05
76 | CAAGCTTCCT | 1.99
77 | TATTGAGTAC | 1.03
78 | CGGGCTTTGA | 1
79 | AAAAGGGTGC | 1.08
80 | CTACGGTCGG | 1.03
81 | TGAGAGCGTT | 0.943
82 | CTGAAGTGAA | 1.18
83 | CAAATACAGC | 1.01
84 | TCACGAAGTA | 0.974
85 | GAAGCAAAGT | 0.997
86 | ATCGTGAAGT | 1.03
87 | TACCGCCTGG | 1
88 | CAGACGTCTT | 1.04
89 | TCGCTGAACC | 1.43
90 | CCGCGTGGCG | 1.02
91 | CTCCTTGCAG | 1.61
92 | ACGGCAGGT | 1.06

Row | Sequence | switch fluorescence ratio
93 | ATACTGCAAC | 1.24
94 | AAATAGGCTT | 0.954
95 | GGAGTATTAA | 1.02
96 | AGTGTCTTA | 1.03
97 | CCTAGAAGTT | 1.01
98 | TTCGAAATGC | 3.76
99 | AAGCCTGTTC | 1.03
100 | TTAGATCGAG | 0.998
101 | AATTGTTCGG | 1.01
102 | CCGAGTGCG | 1.25
103 | ATCTCGATAG | 1.05
104 | CGCCAGTTAG | 0.975
105 | ATGTTGCCGG | 1.04
106 | GCTTTTTCCG | 1.13
107 | CGACCGTGAA | 1.2
108 | TCTGCACCTC | 1.33
109 | GGTGACGAA | 0.981
110 | TGTTACTCTT | 0.956
111 | TAAACGTCTG | 1.04
112 | CCACTCTTGA | 1
113 | TTGCGCCG | 1.01
114 | GACTCTGCCG | 1.06
115 | CAGAAGGTGG | 1

Row | Sequence | switch fluorescence ratio
116 | CATCTGACCC | 1.07
117 | TCAGTCGGGG | 0.991
118 | CATGGCAAT | 1.77
119 | AGCTAACACT | 1.06
120 | TAAGACCGAG | 0.985
121 | TGTTTTGA | 1.02
122 | CATTATTCTG | 1.02
123 | CTAACGAGG | 1.02
124 | AGTATACGG | 1.07
125 | TTACTGACGG | 1.27
126 | GGTTGTAATA | 0.975
127 | ACTGCAGGCA | 1.03
128 | AGCGCCGTAA | 1.02
129 | TGCTATATGA | 1.05
130 | CATTTACGAG | 1.03
131 | TTTTGTGCCA | 0.994
132 | GCCAGCCAGC | 1.04
133 | TTCTGAAACT | 1.05
134 | CGAGGAAACG | 0.976
135 | CGCTAGAGCG | 1.02
136 | GGCTAGAGAG | 0.999
137 | CTAAGGATAG | 0.974
138 | TAAGGAATAG | 1.1

Row | Sequence | switch fluorescence ratio
139 | TTTACCGATG | 1.01
140 | TCCCTTGTAC | 1.37
141 | CGATTGTATT | 0.988
142 | ATATCAGCCC | 0.978
143 | GCCCGTAGCG | 1.17
144 | TTGGAGAGTT | 0.989
145 | GGTGGCACAC | 1.05
146 | TGAGACATGG | 0.999
147 | TTTAGTTGTC | 0.923
148 | TGACTAGCAG | 1.01
149 | GGCTAGTAG | 1.05
150 | GAGTAGTAAC | 0.967
151 | TGGTTTAGAT | 0.96
152 | TCGTATGCAT | 1.02
153 | GCCACCTTCA | 1.61
154 | CTCATAATAG | 1.08
155 | GCTAGCCCTG | 1.04
156 | TAGGTAGACG | 0.94
157 | TACGACTCAT | 1.17
158 | TGTACAAACA | 1.02
